Laboratory results as given in PubChem BioAssay AID1466 (National Center for Advancing Translational Sciences (NCATS), 2008).
The campaign covered roughly 200,000 compounds. About 10 (0.005%) were called active. Inconclusive results, whose numbers are uncertain, are shown with a selection of clear calls. Calls follow the shape of the dose curve; as a rule, active = well fitted inhibition curve with a large enough effect; inconclusive = small, poorly fitted or top-dose-only effect, or effect the other way, or another doubt; inactive = no such curve, though single readings can be large or run the other way. No potency is given beside an inconclusive call; the fits are too rough.

biological target: Lysosomal alpha-glucosidase (Homo sapiens) (UniProt P10253); assay: qHTS Assay for Inhibitors of Human alpha-Glucosidase as a Potential Chaperone Treatment of Pompe Disease; conditions: purified human GAA, 4-MU-alpha-glucoside fluorescence; activity change, negative = inhibition: at 76.9 µM (top of the series) unless noted;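 as to activity change, negative = inhibition: plate controls were uninhibited enzyme wells for no effect and no-enzyme background for full effect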
Procedure, shortened: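 Fluorescence at Ex 365/Em 440 nm from 4-methylumbelliferone reported enzyme activity after 20 min at room temperature. Reactions used 4 nM enzyme and 400 uM substrate at pH 5.0; curves fitted with the Hill equation.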
Potency is read from the fitted curve at half-maximal effect; tags tell the direction and shape of the fitted curve.

Q: How did the Potency turn out when `O=C(NC1CCN(Cc2nnnn2CCc2ccccc2)CC1)c1ccccc1F` was run?
A: inconclusive [inhibitor, single point]

Q: For `COc1cc(NC(=O)CN2CCN(S(=O)(=O)c3ccc(C(C)C)cc3)CC2)cc(OC)c1`, which Potency is on record?
A: inconclusive [inhibitor, partial curve]

Q: With `Fc1cccc2sc(Nc3nc4c(F)cccc4s3)nc12` as the compound, how does the Potency read?
A: inconclusive [activator, partial curve, poor fit]

Q: Which Potency does the source give for `C/C(=N\O)C1(C)N(O)C(C)(C)C(c2ccc(F)cc2)=[N+]1[O-]` (configuration not stated) here?
A: inconclusive [inhibitor, single point]

Q: For `COc1ccc(OCC(=O)Nc2ccc3oc(-c4ccncc4)nc3c2)cc1`, which activity change, negative = inhibition is on record?
A: inconclusive: 16.7% [activator]

Q: `CCC(C)(C)NC(=O)CN(CCc1cccc(C)c1)C(=O)c1csnn1` was tested. Which activity change, negative = inhibition did it give?
A: inconclusive: 20.1% [activator]

Q: For `Clc1cccc(Cl)c1Cn1c(-c2cccnc2Cl)nc2ccccc21`, which Potency is on record?
A: inconclusive [inhibitor, single point]

Q: For `N#Cc1c(N)nc2c(c1N)CC(CO)O2` (configuration not stated), which Potency is on record?
A: inconclusive [inhibitor, full curve, poor fit]

Q: For `S=C1NC(C23CC4CC(CC(C4)C2)C3)=CC(c2ccc3c(c2)OCO3)N1` (configuration not stated), which Potency is on record?
A: inconclusive [inhibitor, single point]

Q: With `CCOC(=O)N1CCN(C(=O)CN(c2ccc(OCc3ccccc3)cc2)S(C)(=O)=O)CC1` as the compound, how does the activity change, negative = inhibition read?
A: inconclusive: -17.4% [inhibitor]

Q: With `Cc1cc(NC(=O)c2ccc(F)cc2F)n(-c2nc3ccccc3[nH]2)n1` as the compound, how does the Potency read?
A: inconclusive [inhibitor, single point]

Q: Which Potency does the source give for `CCCCc1c(O)nc(SCC(=O)NCC2CCCO2)[nH]c1=O` (configuration not stated) here?
A: inconclusive [inhibitor, single point]

Q: Which Potency does the source give for `Cc1cccc(NC(=S)NCC2CCCO2)c1` (configuration not stated) here?
A: inconclusive [inhibitor, single point]

Q: `O=S1(=O)CCN2C=C(Cl)C=C(Cl)C2=N1` was tested. Which Potency did it give?
A: inconclusive [activator, partial curve]

Q: Which Potency does the source give for `CC(=O)NCCN=C(C)c1sc2ccccc2c1O` here?
A: inconclusive [inhibitor, single point]

Q: For `O=Cc1cn(-c2ccccc2)nc1-c1cc2cc(O)ccc2oc1=O`, which Potency is on record?
A: inconclusive [activator, partial curve]

Q: For `O=C(C(Cc1ccccc1)n1cccc1)N1CCN(c2cccc(Cl)c2)CC1` (configuration not stated), which Potency is on record?
A: inconclusive [inhibitor, single point]

Q: With `COc1cccc(CNn2c(-c3cccc(C)c3)nc3ccccc3c2=O)c1O` as the compound, how does the “activity change, negative = inhibition” value read?
A: inactive: -1.49%

Q: For `CCCCN(C)C(=O)CCC(=O)Nc1ccc2nc(N3CCOCC3)cc(C)c2c1`, which Potency is on record?
A: inconclusive [activator, partial curve]

Q: With `O=C(N/N=C/c1c[nH]c2ccccc12)c1ccn(Cc2ccc(Cl)cc2Cl)n1` as the compound, how does the Potency read?
A: inconclusive [inhibitor, partial curve, poor fit]

Q: How did the Potency turn out when `CCOC(=O)c1c(-c2ccccc2)cn2ccccc12` was run?
A: inconclusive [activator, partial curve]

Q: With `CCn1c(CCCOc2ccc(Cl)cc2Cl)n[nH]c1=S` as the compound, how does the activity change, negative = inhibition read?
A: inconclusive: 15.4% [activator]

Q: How did the Potency turn out when `CCOC(=O)N1CCN(C(=O)c2ccc3c(=O)n(-c4ccccc4F)c(=S)[nH]c3c2)CC1` was run?
A: inconclusive [inhibitor, partial curve]

Q: With `Cc1ccsc1/C=N\NC(=O)c1cc(C(C)(C)C)[nH]n1` as the compound, how does the Potency read?
A: inconclusive [inhibitor, single point]

Q: With `Cn1c(=O)c(Oc2cc(Cl)cc(Cl)c2)nc2ccccc21` as the compound, how does the Potency read?
A: inconclusive [inhibitor, full curve]

Q: For `N#Cc1nc(-c2cccs2)oc1NCc1ccccc1`, which Potency is on record?
A: inconclusive [activator, single point]

Q: `CS(=O)(=O)N1Cc2ccccc2CC1C(=O)OCC(=O)Nc1ccc2ccccc2c1` (configuration not stated) was tested. Which Potency did it give?
A: inconclusive [inhibitor, single point]

Q: `O=C(COC(=O)c1n[nH]c2ccccc12)Nc1ccc([N+](=O)[O-])cc1` was tested. Which Potency did it give?
A: inconclusive [inhibitor, single point]

Q: With `Cc1n[nH]c(C)c1S(=O)(=O)N1CCCC(C(=O)Nc2nccs2)C1` (configuration not stated) as the compound, how does the Potency read?
A: inconclusive [inhibitor, single point]

Q: With `O=C1CC(Nc2ccccc2)C(=O)N1CCc1ccccc1` (configuration not stated) as the compound, how does the activity change, negative = inhibition read?
A: inconclusive: -16.2% [inhibitor]

Q: `NC1=NN=C(N2N=C(c3ccc(Br)cc3)CC2(O)C(F)(F)F)n2ncnc2C1` (configuration not stated) was tested. Which Potency did it give?
A: inconclusive [inhibitor, partial curve]

Q: How did the Potency turn out when `Cc1ccc(NC(=S)NC(=O)c2c(-c3ccccc3Cl)noc2C)cc1` was run?
A: inconclusive [inhibitor, full curve, poor fit]

Q: For `N#Cc1cnc(SCCc2ccccc2)nc1N`, which Potency is on record?
A: inconclusive [inhibitor, single point]

Q: Which Potency does the source give for `O=C(C1CC(Cl)CN1S(=O)(=O)c1ccc(Cl)cc1)N1CCOCC1` (configuration not stated) here?
A: inconclusive [activator, single point]

Q: `O=S(=O)(NC1CC1)c1ccc(S(=O)(=O)N2CCC3(CC2)OCCO3)cc1` was tested. Which activity change, negative = inhibition did it give?
A: inconclusive: -17.1% [inhibitor]

Q: With `O=C(c1nn2c(C(F)(F)F)cc(-c3ccco3)nc2c1Br)N1CCCc2ccccc21` as the compound, how does the Potency read?
A: inconclusive [inhibitor, partial curve]

Q: With `O=Cc1ccccc1Oc1ccccc1` as the compound, how does the Potency read?
A: inconclusive [inhibitor, single point]

Q: With `Cc1ccc(S(=O)(=O)c2c(N)n(-c3ccccc3)c3nc4ccccc4nc23)cc1` as the compound, how does the Potency read?
A: inconclusive [activator, partial curve]

Q: Which Potency does the source give for `CCC(C)(C)n1nnnc1C(C(C)C)N(CCN1CCOCC1)Cc1cc2cccc(C)c2[nH]c1=O` (configuration not stated) here?
A: inconclusive [inhibitor, single point]

Q: How did the activity change, negative = inhibition turn out when `Cc1ccc(NCc2nnc(SCC(=O)O)n2-c2ccc(C)cc2)cc1` was run?
A: inconclusive: 18.8% [activator]

Q: How did the Potency turn out when `CN(C)S(=O)(=O)c1ccc(C(=O)NCc2nnc(SCC(=O)Nc3ccc(F)cc3)n2-c2ccc(F)cc2)cc1` was run?
A: inconclusive [inhibitor, partial curve, poor fit]

Q: How did the Potency turn out when `O=C(NC1CCCCC1)C12CC3CC(CC(Cl)(C3)C1)C2` was run?
A: inconclusive [inhibitor, single point]

Q: Which Potency does the source give for `CCN(CC)C(=O)C12CC3CC(CC(Cl)(C3)C1)C2` here?
A: inconclusive [inhibitor, single point]

Q: With `COc1cccc(C(=O)Nc2ccc(-c3nc4ccccc4o3)c(O)c2)c1` as the compound, how does the Potency read?
A: inconclusive [activator, single point]

Q: How did the activity change, negative = inhibition turn out when `COc1cc(/C=C/C(=O)OCC(=O)c2c(N)n(C)c(=O)n(C)c2=O)ccc1O` was run?
A: inconclusive: 7.06% [activator]

Q: Which activity change, negative = inhibition does the source give for `C=CCn1c(C)cc(C(=O)CSc2ccc(NC(C)=O)cc2)c1C` here?
A: inconclusive: -15.4% [inhibitor]

Q: Which Potency does the source give for `N#Cc1nc(-c2cccs2)oc1NCC1CCCO1` (configuration not stated) here?
A: inconclusive [activator, single point]

Q: Which Potency does the source give for `Cc1cc(SCC(=O)N2CCC(c3noc4ccc(F)cc34)CC2)nc2ccccc12` here?
A: inconclusive [inhibitor, single point]

Q: `O=S(=O)(NC1CC1)c1ccc(S(=O)(=O)N2CCCc3ccccc32)cc1` was tested. Which Potency did it give?
A: inconclusive [inhibitor, partial curve, poor fit]

Q: With `Oc1ccc(/C=N/N2CCN(C3c4ccccc4-c4ccccc43)CC2)c(O)c1` as the compound, how does the activity change, negative = inhibition read?
A: inconclusive: 3.97% [activator]

Q: With `Cc1ccc2[nH]c(CCN(C)C)c(CC#N)c2c1` as the compound, how does the Potency read?
A: inconclusive [inhibitor, single point]

Q: Which Potency does the source give for `CCCN(CCC)S(=O)(=O)c1ccc(C(=O)OCCN2C(=O)c3cccc4c(N5CCOCC5)ccc(c34)C2=O)cc1` here?
A: inconclusive [inhibitor, partial curve, poor fit]

Q: Which Potency does the source give for `CCCCc1ccc(NC(=O)N[C@H](C(=O)O)C(C)C)cc1` here?
A: inconclusive [inhibitor, single point]

Q: `O=C(COC(=O)/C=C/c1cccs1)Nc1ccc2ccccc2c1` was tested. Which Potency did it give?
A: inconclusive [inhibitor, single point]

Q: Which Potency does the source give for `CC(C)CN(CC(C)C)CC(O)COc1ccc([N+](=O)[O-])cc1` (configuration not stated) here?
A: inconclusive [inhibitor, single point]

Q: For `COC(=O)c1ccc(-c2ccco2)n1Cc1cccc(C)c1`, which Potency is on record?
A: inconclusive [inhibitor, partial curve, poor fit]

Q: For `O=C(Nc1ccccc1C(=O)N/N=C/c1ccco1)c1ccccc1Cl`, which activity change, negative = inhibition is on record?
A: inconclusive: 12.1% [activator]

Q: Which activity change, negative = inhibition does the source give for `O=c1[nH]c(-c2ccco2)nc2sc3c(c12)CCCC3` here?
A: inconclusive: -15.9% [inhibitor]

Q: `O=C(CSC1=Nc2ccccc2C2=NC(c3ccccc3)C(=O)N12)NC1CCCCC1` (configuration not stated) was tested. Which Potency did it give?
A: inconclusive [activator, single point]

Q: `CC(=O)NC(C)C(=O)OCc1ccc(Cl)cc1Cl` (configuration not stated) was tested. Which Potency did it give?
A: inconclusive [inhibitor, full curve, poor fit]

Q: Which Potency does the source give for `CCCc1cc(C(=O)NNC(=S)NCc2ccccc2)cs1` here?
A: inconclusive [inhibitor, partial curve, poor fit]

Q: How did the activity change, negative = inhibition turn out when `CCOc1cc(OCC)cc(C(=O)NC(=S)Nc2cccc(C(F)(F)F)c2)c1` was run?
A: inconclusive: -15.6% [inhibitor]
